From PubChem BioAssay AID624418 (National Center for Advancing Translational Sciences (NCATS), 2012)
Among all 410,000 compounds or so, about 530 (0.13%) were called active. The inconclusive results got no clear call from the source; some entries with a clear call stand among them for comparison. The call rests on the fitted dose curve; in most records, active means well fitted inhibition curve with a large enough effect; inconclusive means small, poorly fitted or top-dose-only effect, or another doubt; inactive means no such curve, though single readings can be large or run the other way. A potency beside an inconclusive call is a rough fit, not a confirmed value.

Assay: qHTS of GLP-1 Receptor Inverse Agonists: Cytotox Screen
Conditions: HEK293 cAMP-luciferase reporter cells, luminescence, 24 h; activity change, negative = inhibition: at 38.3 µM (top of the series) unless noted
Summary of the method: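 Here, cytotoxicity is scored as loss of luminescence. The MLSMR collection was tested on cells seeded in medium containing 10% Nu serum, with a 24 hr compound exposure preceded by 12 hours of culture.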
On the % scale 0 is the no-effect control and ±100 the full control effect; potency means the concentration at half of the fitted maximal effect.

| Structure (SMILES) | Potency | activity change, negative = inhibition |
| --- | --- | --- |
| Cc1ccc(C(=O)c2coc3c2C(=O)C(=O)c2ccccc2-3)cc1 | inconclusive: 15.8 µM [inhibitor, partial curve, poor fit] |  |
| Cc1ccc(CN(Cc2ccco2)C(=O)c2oc3c(C)c(C)ccc3c2C)cc1 |  | inactive: 15.3% |
| Cc1n[nH]c(C)c1S(=O)(=O)N(CC(=O)NC1CCCC1)c1ccc(C(C)C)cc1 | inconclusive: 31.6 µM [inhibitor, single point] |  |
| COC(=O)C1=C(COc2ccccc2)NC(=O)NC1c1ccc(Br)cc1 (stereo not drawn) | inconclusive: 28.2 µM [inhibitor, single point] |  |
| CC(C)COc1ccccc1C1CC(=O)Nc2cc3c(cc21)OCO3 (stereo not drawn) | inconclusive: 3.55 µM [inhibitor, partial curve, poor fit] |  |
| CCCCOc1ccccc1Cn1c(=O)oc2ccccc21 |  | inactive: -9.08% |
| CC1CCCN(CC(O)COC(c2ccccc2)c2ccccc2)C1 (stereo not drawn) |  | inactive: -14.7% |
| CCc1ncc(C(=O)c2ccc(OC)cc2)n1C | inconclusive: 11.2 µM [inhibitor, single point] |  |
| CCCCNCC1C(Oc2ccc(Cl)cc2)C(=O)N1c1ccccc1C (stereo not drawn) | inconclusive: 22.4 µM [inhibitor, single point] |  |
| CCCCCn1c(=N)n(CC(O)COc2cccc(C)c2)c2ccccc21 (stereo not drawn) | inconclusive: 28.2 µM [inhibitor, single point] |  |
| NC(Cc1ccc(F)cc1)c1csc(Nc2nccc(C(F)(F)F)n2)n1 (stereo not drawn) | inconclusive: 12.6 µM [inhibitor, single point] |  |
| NCCCC[C@H]1CNC(=S)N1CCCCC1CCCCC1 | inconclusive: 2.82 µM [inhibitor, partial curve, poor fit] |  |
| Cc1[nH]c2ccc(C(=O)N3CCN(c4cccc(Cl)c4)CC3)cc2c1C | inconclusive: 3.98 µM [inhibitor, full curve, poor fit] |  |
| O=C(COC(=O)CNC(=O)c1ccccc1F)Nc1ncc(Cl)cc1Cl | inconclusive: 5.01 µM [inhibitor, partial curve] |  |
| COc1ccccc1C(=O)C1CCCN(C(=O)c2cccc(Cn3cccn3)c2)C1 (stereo not drawn) |  | inactive: -4.8% |
| CN(C)S(=O)(=O)c1cc([N+](=O)[O-])ccc1N1CCCCCC1 | inconclusive: 3.55 µM [inhibitor, partial curve] |  |
| COc1ccc(NC(=O)c2cccs2)c([N+](=O)[O-])c1 |  | inactive: 1.27% |
| O=C(CCn1cnc2onc(-c3ccc(F)cc3)c2c1=O)N1CCN(c2cccc(Cl)c2)CC1 |  | inactive: 0.332% |
| COc1cc(/C=C2/C(=O)c3cccc([N+](=O)[O-])c3C2=O)c(Br)cc1O | inconclusive: 17.8 µM [inhibitor, partial curve, poor fit] |  |
| CC(C)(C)NCC(O)COc1ccccc1C(=O)CCc1ccccc1 (stereo not drawn) | inconclusive: 10 µM [inhibitor, partial curve, poor fit] |  |
| COc1ccc(CCC(=O)OCc2csc(CC(=O)Nc3ccc(C)cc3)n2)cc1OC |  | inactive: -0.514% |

| Structure (SMILES) | Potency | activity change, negative = inhibition |
| --- | --- | --- |
| Cn1c(CSCCOc2ccccc2)n[nH]c1=S | inconclusive: 4.47 µM [inhibitor, partial curve] |  |
| Clc1ccc(CN2CCC(c3nc4ccc(Cl)cc4[nH]3)CC2)cc1 | inconclusive: 12.6 µM [inhibitor, partial curve, poor fit] |  |
| CC(C)(C)c1ccc(-c2nnc(SCCC#N)n2C2CCCC2)cc1 |  | inactive: -16.2% |
| COc1ccccc1-c1ncn(Cc2cccc(-c3ccccc3)c2)c1-c1cc(C)cc(C)c1 | inconclusive: 25.1 µM [inhibitor, single point] |  |
| CCCOc1ccc(CCc2n[nH]c(=S)n2-c2ccccc2)cc1 | inconclusive: 10 µM [inhibitor, partial curve, poor fit] |  |
| NC(=O)SCC(=O)Nc1ccc(Cl)c(Cl)c1 | inconclusive: 11.2 µM [inhibitor, single point] |  |
| O=C(c1cccc([N+](=O)[O-])c1)N1CCCC(C(=O)N2CCN(c3ccccc3)CC2)C1 (stereo not drawn) |  | inactive: 5.9% |
| Oc1cccc(NC(=S)N=Nc2c(O)[nH]c3ccc(Br)cc23)c1 | inconclusive: 28.2 µM [inhibitor, single point] |  |
| O=C1CC(SCc2nc3ccccc3[nH]2)C(=O)N1c1cccc(Cl)c1 (stereo not drawn) |  | inactive: -14.8% |
| COc1cccc(C(=O)Oc2c(Br)cc(Br)cc2/C=N/NC(=O)c2cc(C)[nH]n2)c1 |  | inactive: -1.12% |
| COc1ccc(NC(=O)N(Cc2cccnc2)Cc2ccccc2Cl)c(OC)c1 | inconclusive: 3.55 µM [inhibitor, partial curve, poor fit] |  |
| COc1cc(CC(=O)OCC(=O)c2c[nH]c3ccccc23)cc(OC)c1OC |  | inactive: -10.9% |
| COc1cc(/C=C2/SC(=S)N(CC(=O)O)C2=O)ccc1OC(=O)c1ccco1 | inconclusive: 31.6 µM [inhibitor, single point] |  |
| COC(=O)c1sccc1NC(=S)Nc1ccc(F)cc1F |  | inactive: 4.2% |
| COc1ccccc1NS(=O)(=O)c1ccc(C(=O)N2CCN(c3ccccn3)CC2)cc1 | inconclusive: 8.91 µM [inhibitor, partial curve, poor fit] |  |
| O=C1c2ccccc2-c2onc3c(NCCO)cc(NC4CCCCC4)c1c23 | inconclusive: 8.91 µM [inhibitor, partial curve, poor fit] |  |
| CCOC(=O)c1c(NC(=O)C(=O)N/N=C/c2ccc(O)c(OC)c2)sc2c1CCCCC2 | inconclusive: 20 µM [inhibitor, single point] |  |
| COC(=O)c1ccc(/C=N/NC(=S)NC(C)C)cc1 | inconclusive: 31.6 µM [inhibitor, single point] |  |
| CC(=O)SC1CC(=O)N(c2ccc(C(C)(C)C)cc2)C1=O (stereo not drawn) | inconclusive: 2.82 µM [inhibitor, partial curve, poor fit] |  |
| CC(C)COc1ccc(C(=O)Nc2ccc([N+](=O)[O-])cc2)cc1 |  | inactive: 25.6% |
| Cc1ccc(C2=NN(C(=O)CCl)C(c3ccco3)C2)o1 (stereo not drawn) | inconclusive: 10 µM [inhibitor, single point] |  |

| Structure (SMILES) | Potency | activity change, negative = inhibition |
| --- | --- | --- |
| COC(=O)[C@@H](NC(=O)Nc1ccc(S(N)(=O)=O)cc1)C(C)C | inconclusive: 31.6 µM [inhibitor, single point] |  |
| Cc1cc(C)c2sc(N(CCCN(C)C)C(=O)COc3ccc(Cl)cc3)nc2c1 | inconclusive: 28.2 µM [inhibitor, single point] |  |
| Cc1ccccc1Oc1cc(NC(=O)CCCn2nc(C)c([N+](=O)[O-])c2C)cc([N+](=O)[O-])c1 | inconclusive: 11.2 µM [inhibitor, single point] |  |
| Cc1ccc(C(=O)OCC(=O)Nc2nc(-c3ccccc3)cs2)cc1NC(=O)c1ccco1 | inconclusive: 12.6 µM [inhibitor, single point] |  |
| CCCCC(=NCCc1c(C)[nH]c2ccccc12)C1=C(O)CC(c2ccccc2)CC1=O (stereo not drawn) | inconclusive: 7.94 µM [inhibitor, partial curve, poor fit] |  |
| FC(F)C(F)(F)C(F)(F)C(F)(F)c1cc(-c2ccccc2)n[nH]1 | inconclusive: 15.8 µM [inhibitor, single point] |  |
| C[C@H](CO)N1C[C@H](C)[C@@H](CN(C)Cc2ccc(-c3ccccc3)cc2)Oc2c(NS(=O)(=O)c3ccc(F)cc3)cccc2C1=O | inconclusive: 1.41 µM [inhibitor, full curve] |  |
| Cc1ccc(S(=O)(=O)NCC(=O)NCC2CCCCC2)cc1C | inconclusive: 14.1 µM [inhibitor, single point] |  |
| CCOc1cccc(CN(C)CC2CCCN(CCc3ccc(Cl)cc3)C2)c1O (stereo not drawn) | inconclusive: 12.6 µM [inhibitor, single point] |  |
| CCc1ccc(/C=N\NC(=O)c2ccc(Br)o2)s1 | inconclusive: 11.2 µM [inhibitor, partial curve, poor fit] |  |
| Cc1ccc2cc(CN(Cc3ccco3)S(=O)(=O)c3c(C)ccc4nsnc34)c(=O)[nH]c2c1 | inconclusive: 28.2 µM [inhibitor, single point] |  |
| CN(CCCC1CCCC1)C(=O)CC1C(=O)NCCN1Cc1ccc(F)cc1 (stereo not drawn) |  | inactive: 12.2% |
| COc1ccc(-c2cc(C(=O)NCCCn3ccnc3)c3ccccc3n2)c(OC)c1 | inconclusive: 8.91 µM [inhibitor, partial curve, poor fit] |  |
| C#CCOCCOCCOCCNc1nc(N2CCN(C(=O)[C@H](CCC(=O)O)n3cc(C(N)Cc4ccc(O)cc4)nn3)CC2)nc(N2CCN(C(=O)[C@H](Cc3cc4ccccc4[nH]3)n3cc(C(N)[C@H](C)CC)nn3)CC2)n1 (stereo partly drawn) | inconclusive: 1 µM [inhibitor, full curve, poor fit] |  |
| O=C(O)c1ccc(NC2=C/C(=N/S(=O)(=O)c3ccccc3)c3ccccc3C2=O)cc1 | inconclusive: 10 µM [inhibitor, partial curve, poor fit] |  |
| Cc1ccc(CC(=O)NC2CCCc3ccccc32)cc1C (stereo not drawn) |  | inactive: 6.1% |
| C/C(=N\NC(=O)CSCc1ccc([N+](=O)[O-])cc1)c1ccccc1O | inconclusive: 22.4 µM [inhibitor, single point] |  |
| Nc1sc(-c2ccccc2)cc1-c1n[nH]c(=S)n1C1CCCCC1 | inconclusive: 1.41 µM [inhibitor, full curve, poor fit] |  |
| COCCCNC(=S)N/N=C/c1cccc(OC)c1O | inconclusive: 0.501 µM [inhibitor, full curve, poor fit] |  |
| Cc1cc(C)n(-c2nc(N(C)C)nc(N(C)C)n2)n1 | inconclusive: 22.4 µM [inhibitor, single point] |  |
| COc1ccc(/C=C/C2=CC(C)(C)NC(=S)N2)cc1OC | inconclusive: 15.8 µM [inhibitor, partial curve, poor fit] |  |
